# Experimental data taken from the supplement of paper PMC11417369.
# The other results are listed elsewhere or left out.
# Tested on: PfAP2-HC AP2 domain (GST-tagged)
# Experiment: gcPBM binding intensity (ln(normalized median fluorescence intensity)); higher = stronger DNA binding
# Summary of the method: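 An Agilent 4 × 180k array carrying primer-extended double-stranded 36-bp intergenic genomic probes and negative controls received GST-tagged P. falciparum DNA-binding domains expressed in E. coli, about 25 μg on average, for 1 h. The binding buffer contained 1× PBS, 1% milk, 0.2 mg/ml BSA, 0.5% salmon testes DNA and 0.03% Triton X-100. Binding intensity is the top Masliner-normalised natural-log median intensity across replicate spots of either probe orientation, read after Alexa488 anti-GST antibody staining and a 488 nm scan.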
row,Sequence,gcPBM binding intensity (ln)
1,AAAAAAAGAAAAAAAACACACACAAATATAAATAAA [CACACA_site8309],10.9
2,TTATGATCATTTATATGTACACATAATTTTTGTGCT [XGTACX_site5568],9.79
3,TATTAATTTCTTTTTTCTCATCACTTTCAAAATGAA [CACACA_negctrl_site1055],9.13
4,GTTCAAATTCTTATACCTTTTTATTGAGCCATAATA [CACACA_negctrl_site210],9.58
5,GAATGAATGATAAATTTTTTTTTCTTTTTTTTTTTG [CACACA_negctrl_site333],9.27
6,AGCATATATTAAACATGTACATAAATATATTATATA [XGTACX_site1451],9.66
7,TGATAACTAAATACATGTACAAATTAAAAAGAAAAA [XGTACX_site3080],9.89
8,TAATGATTATATGACTGTACATTTGTAGGTATAATT [XGTACX_site3373],9.6
9,TTATTTTTTTCAACAAGTACTAATACAAAATAAAAC [XGTACX_site6460],9.38
10,GATTAAATCGATAATACACACTAAATGTAAAACATT [CACACA_site4248],9.81
11,TTGTATTATTAAATTATAAAACCTATAATTATGGAT [GTGCAC_negctrl_site340],9.45
12,CATATTTATAAATATAAACACACAACATTATATGCA [CACACA_site9065],9.95
13,TTTAATTAATAATAATATAAATTGTTCTTTTTTTTT [GTGCAC_negctrl_site176],9.24
14,GCAAAATAAAGAAGCACACAAAAATGAAATATATAT [CACACA_site3651],9.96
15,TATACGTAATAATATGCACACAAATAAACTTTATAA [CACACA_site9166],9.89
16,TCTTGGTATATTCAATATATGATTTATATAATTCAA [CACACA_negctrl_site818],9.54
17,AAAAAAAATACATACATACACACATATATATATATA [CACACA_site912],9.9
18,ACTAGTAAATTTATATGTACATATATATATATATAG [XGTACX_site2502],9.71
19,ATTTATATATATCATACACACTAATATGTATATTAT [CACACA_site5816],9.86
20,AATAATTTGAAGGTGATAGTATTACATGGGAAATCA [CACACA_negctrl_site301],9.68
21,ACTCTCTTATATTAAACACACATATATATATGTATA [CACACA_site2703],9.89
22,TCAAACAAAAAAGAAACACACACTAATTAAATTTTC [CACACA_site1101],9.96

row,Sequence,gcPBM binding intensity (ln)
1,ATCTTTCGAACATGTACACACAGAAAAAAAAAAAAA [CACACA_site5393],9.65
2,TTATATGCATCCAAAAAGGAATGTTTTTAGAGAATC [CACACA_negctrl_site1062],9.48
3,GTGTAGGCAAAAAGTTGTACGCCTAAAATCTATATA [XGTACX_site8912],9.6
4,TGTATAGGTACAATAATTATAGAGTAATTGACATTA [GTGCAC_negctrl_site183],9.48
5,TAAAAAGTATATGGTCGTACACTTTTGATTAATACA [XGTACX_site7804],9.51
6,AAATCGAACAAATTATGTACTAAAAAAAAAATTTAT [XGTACX_site6399],9.48
7,GTACATATAAATATTACACACATTTTCATTTTTAAC [CACACA_site1986],9.95
8,CATATAAGAATCTTCTGTACTTATAAGAAAAGACAT [XGTACX_site8135],9.38
9,TAAAACAAAATAACATGTACAAAAAAAAAAAAAAAA [XGTACX_site2915],9.24
10,AAAAAAAAAAAAACAACACACAATGTTTTATTTTAC [CACACA_site1613],9.81
11,ATGTAATATGTTCATGCATGTAAAATTACATTTAGA [TGCATGCA_site852],9.65
12,ATACACAAATGCATACGTACATATATATATATATAT [XGTACX_site3504],10.1
13,TATAAATAAAGACTTTTTTCTAACTTTTTTTTGTAT [CACACA_negctrl_site1015],9.55
14,TATATATATATATATGTGCACATTTATTGCCTTTGC,9.7
15,AAAATTTAATATGAATGTACATAAAAAAAAAAAAAA [XGTACX_site6719],9.48
16,TAAGTATATTTCTGCACACAAAAAAAAAAACCAAAA [CACACA_site4056],9.93
17,ATATCTATAATAAACACACAAATAGATATAACATAT [CACACA_site7702],9.86
18,AAAAAAAAATTAAAAACACACATATATATATATATA [CACACA_site1580],9.73
19,ATATTTTTTTTCTTCACACACATGAGTTATAAATAA [CACACA_site7498],9.87
20,AATGAAACAATACCCAGTAAAAAAAAAAAATAAATA [TGCATGCA_negctrl_site205],9.74
21,TGTAATCTGGAGAAGAGTACACAGTATCTGGTAGCT [XGTACX_site4935],9.52
22,ATATATAATATAATATGTACATATAATCAATCCTGT [XGTACX_site8694],9.76

row,Sequence,gcPBM binding intensity (ln)
1,ATTTAGTATTCGAAACGTACACATATATATATATAT [XGTACX_site3910],9.82
2,AAGGTAAAATATAAGTGTACTTTTTCTTAATCTTCG [XGTACX_site514],9.58
3,GGACGTATTAAAAGGCGTACACTAAATATTTTATGT [XGTACX_site146],9.67
4,TAATATTTATATAATTGTACTTTGTTTGTAAATCCA [XGTACX_site7292],9.55
5,ATTATAATTTTGTAAAGTACATATTATTATATATTA [XGTACX_site7191],9.51
6,TATTTATATAATCCTATAATATTACTACTATCTTTA [GTGCAC_negctrl_site342],9.72
7,AAGATAATTACGCACACACACACACGCCCACAACTA [CACACA_site7255],11.4
8,CCATATATAATGACATGTACTCAAAAAAAAAAAAAA [XGTACX_site685],9.42
9,TTTTTAAAAAAAAATAGAGAGTCAAAGTATGTGGCG [CACACA_negctrl_site194],9.52
10,ATACATATATATATATGTACATATATTTATATTTAT [XGTACX_site3155],9.72
11,TTTCTCTTTTTTTGGGGTACAACCAATCCTATAATA [XGTACX_site297],9.54
12,TAATTCAAACGTGTATGTATATTACTCGAAGAAATA [CACACA_negctrl_site1779],9.41
13,TTTCAAGGATTTAATTTATGGAAACCTTCTTCATTT [GTGCAC_negctrl_site504],9.38
14,CATATAAGACAAAAGGTGCAATTTTAATGCTTTTAT [GTGCAC_site9432],9.65
15,AACCCTTTTGATTTTTCTTTTTTTTTTTTTTTAAAT [CACACA_negctrl_site1667],9.53
16,ACAGTTTGTCTGAGTAGTACATAAATACTTGAAAGG [XGTACX_site7792],9.63
17,AGAAGGATATTATGAAGTACACATATTGTATATGGT [XGTACX_site7503],9.7
18,TAGTAAAATGGAACACGTACATATATCTATGTATAA [XGTACX_site6103],9.83
19,TATATATTTGTGAAAATATTAAAATAAATAAATAAA [CACACA_negctrl_site295],9.48
20,AAAATCTAGGTATTTATACACACTAATATAATATAC [CACACA_site8108],9.63
21,AAGTTCAAAATAAATGGTACAGAAGTATATATATCA [XGTACX_site174],9.75
22,TAAAAAAAGAGATATTGTACACAAAAAAATTTTACT [XGTACX_site1342],9.59

row,Sequence,gcPBM binding intensity (ln)
1,TAGAAAAAAAAATACATACACACAATATATTTATTT [CACACA_site3123],10.2
2,CTCAAATAACTTTTTACACACATTATTTGAAATAAG [CACACA_site6722],9.7
3,ATATGAATGATCGTACGTACTTACATATTTATAAAG [XGTACX_site8041],9.55
4,CAGAATACATACATTACACACAAATTTAAGTATATA [CACACA_site1781],9.86
5,TCTTACACTAATAAATGTACATACAAAAAATCTATT [XGTACX_site1379],9.53
6,TACCCACTAAAATACACACACACACCCACATATATA [CACACA_site6141],10.4
7,AATTTGAATATTTGATGTACAAAGTTTTTTAATGTT [XGTACX_site3249],9.49
8,GAGAGGATAGTTCACAGTACCCAGTAACTCTACGGA [XGTACX_site4876],9.49
9,GTACCAACAGCACTACTTCTCGCCATTTTCTTGTAG [XGTACX_negctrl_site97],9.89
10,ATAAATATAACATATTGTACCCTTAAAAAGGAACAA [XGTACX_site352],9.5
11,AAATGTATAATTTTTTAATACACTTATTTAAAATAA [CACACA_negctrl_site797],9.4
12,AGGAAAATAATTAAAGCATGCTCATTATGAAATATA [TGCATGCA_site855],9.62
13,AATACATGAACTTAAAGTACTAAAAAAAAAATAATA [XGTACX_site1956],9.65
14,TATGAGAACAAACATTGTACAATAAAAAGTAGATAT [XGTACX_site920],9.99
15,TATACACGCGGACACACACACACACGCAAAAAAAAA [CACACA_site6377],10.5
16,TAAAAACCAAAGAAAAGTACAAATTTAAATGAGAAA [XGTACX_site7450],9.83
17,TTTACACCGTAATATGCATGTGTGTATATATTTTTG [TGCATGCA_site186],9.91
18,ATAAGCCATTTTTGTGGTACATAAAATAGATATATA [XGTACX_site5175],9.63
19,ATATATATTTAAAGATGTACATAATGAAATGGTTAT [XGTACX_site4706],10
20,GCAGTATTTCGGAACACACAAACATAAATATGTATT [CACACA_site2316],9.89
21,ATATATATATATGTATGTACATATTTTTTTTAACAC [XGTACX_site8475],9.8
